In test [1] the target is T1, SUVR2-Flag (Arabidopsis) (UniProt Q9FNC7).
T1 sequence: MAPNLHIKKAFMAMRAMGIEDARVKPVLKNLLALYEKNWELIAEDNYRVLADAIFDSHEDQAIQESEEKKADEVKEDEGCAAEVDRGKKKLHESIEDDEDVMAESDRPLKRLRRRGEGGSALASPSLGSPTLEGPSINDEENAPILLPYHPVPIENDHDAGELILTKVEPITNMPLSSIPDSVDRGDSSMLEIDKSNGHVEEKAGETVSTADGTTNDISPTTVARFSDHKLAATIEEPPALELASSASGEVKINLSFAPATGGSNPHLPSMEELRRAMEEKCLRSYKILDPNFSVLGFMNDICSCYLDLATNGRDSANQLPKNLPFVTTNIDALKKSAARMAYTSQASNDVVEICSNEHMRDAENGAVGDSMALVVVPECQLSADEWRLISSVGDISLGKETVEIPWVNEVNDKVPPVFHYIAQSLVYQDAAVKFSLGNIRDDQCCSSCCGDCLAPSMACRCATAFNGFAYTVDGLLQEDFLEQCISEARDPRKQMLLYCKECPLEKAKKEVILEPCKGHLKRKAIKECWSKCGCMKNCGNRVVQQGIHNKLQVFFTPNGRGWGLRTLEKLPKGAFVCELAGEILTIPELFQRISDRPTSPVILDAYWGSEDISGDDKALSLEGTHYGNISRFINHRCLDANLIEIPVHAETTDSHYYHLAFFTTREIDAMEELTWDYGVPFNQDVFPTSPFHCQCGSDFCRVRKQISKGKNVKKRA
In words: co-IP; protein extracts of Arabidopsis plants harboring two tagged proteins; anti-c-Myc agarose, anti-Flag M1 agarose or anti-AGO4 conjugated agarose; western blotting. In general terms: A western blot detects proteins with antibodies after separation by electrophoresis.

Test [2] concerns the target T1, SUVR2-Flag (Arabidopsis). In words: co-IP; protein extracts of Arabidopsis transgenic plants (or F1 hybrids with two tagged proteins); precipitated with anti-c-Myc agarose, anti-Flag M1 agarose or anti-AGO4 conjugated agarose; western blotting.
Another test deals with T2, GST-SUVR1 (Arabidopsis) (UniProt Q946J2).
T2 sequence: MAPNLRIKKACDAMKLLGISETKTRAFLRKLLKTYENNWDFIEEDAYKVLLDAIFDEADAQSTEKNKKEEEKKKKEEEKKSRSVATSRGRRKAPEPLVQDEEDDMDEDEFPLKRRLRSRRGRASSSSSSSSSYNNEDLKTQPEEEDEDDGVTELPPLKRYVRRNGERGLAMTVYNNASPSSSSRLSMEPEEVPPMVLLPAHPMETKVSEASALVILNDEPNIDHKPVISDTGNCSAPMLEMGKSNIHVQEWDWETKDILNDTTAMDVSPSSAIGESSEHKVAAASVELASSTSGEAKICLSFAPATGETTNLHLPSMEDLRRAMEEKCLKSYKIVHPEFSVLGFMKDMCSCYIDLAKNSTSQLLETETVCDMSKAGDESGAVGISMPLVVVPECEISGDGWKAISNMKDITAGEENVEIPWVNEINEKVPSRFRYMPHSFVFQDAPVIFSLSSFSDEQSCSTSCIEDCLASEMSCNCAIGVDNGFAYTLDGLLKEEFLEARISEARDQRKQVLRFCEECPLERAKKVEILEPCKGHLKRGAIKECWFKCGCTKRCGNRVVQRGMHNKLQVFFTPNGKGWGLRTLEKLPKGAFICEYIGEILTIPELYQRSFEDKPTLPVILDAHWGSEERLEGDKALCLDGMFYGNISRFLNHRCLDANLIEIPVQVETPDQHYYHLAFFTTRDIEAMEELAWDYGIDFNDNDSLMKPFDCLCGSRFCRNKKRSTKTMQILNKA
In words: pull-down; GST pull-down with bacterially expressed GST fusion as bait and His-tagged protein as prey; GST as control.

The target in a further test is T3, SUVR2-Myc (Arabidopsis) (UniProt Q9FNC7).
T3 sequence: T1 sequence
The test is described as follows: co-IP; protein extracts of Arabidopsis plants harboring two tagged proteins; anti-c-Myc agarose, anti-Flag M1 agarose or anti-AGO4 conjugated agarose; western blotting.

Results are given in words; binding and its absence hold for the method and conditions named. In cells and extracts the contact can be indirect. Some binding calls cover weakened binding; strength is not graded here. Tags and fused reporters may be left off the sequences shown.

B1: RDM1-Myc (protein, UniProt Q9LUJ3 1-163)
chain: MQSSMTMELRPSGDSGSSDVDAEISDGFSPLDTSHRDVADEGSLLRRAEMYQDYMKQVPIPTNRGSLIPFTSWVGLSISMKQLYGQPLHYLTNVLLQRWDQSRFGTDSEEQRLDSIIHPTKAEATIWLVEEIHRLTPSHLHMALLWRSDPMYHSFIDPIFPEK
Regarding B1, the binding result with SUVR2-Flag (Arabidopsis) [1] and in the test with SUVR2-Flag (Arabidopsis) [2] was “no binding” in each case.

B2: His-SUVR2 (full-length SUVR2 in fusion with the His tag) (protein, UniProt Q9FNC7 1-717)
chain: T1 sequence
As for B2, in the test with GST-SUVR1 (Arabidopsis), the binding entry is “binds”.

B3: His-SUVR1 (protein, UniProt Q946J2 1-734)
chain: T2 sequence
As for B3, in the test with GST-SUVR1 (Arabidopsis), the binding result is recorded as “binds”.

B4: KTF1-Flag (protein, UniProt F4JW79 1-1493)
chain: MDRKGKGKQVAGSDSYSGGQKRKNSVEFRDEGLRIKKRKNPEVLQFFEESAEVGYYGGSSDEDDDGLGFLNDMEDEPEVEESSKAGKGEKGKSSFVFPKEEDLNEEEFDRIMEERYKPGSGFLRYADDDIKDAIEMDALAPTSKDPPIWKVKCAIGRERRSVFCLMHKFVELRKIGTKLEIISVFSVDHVKGFIFIEADKEHDVLEACKSLVGIYATRMVLLPKAETPNLLTVQKKTKKVSEGTWARVKNGKYKGDLAQIVAVSDTRNKALIKLIPRIDIQALTQKYGGGVTVQKGQTPAPRLISSSELEEFRPLIQVRRDRDTGITFEHLDSLMLKDGYLYKKVSLDSISSWGVIPTKDELLKFTPVDRKETGDVEWISEIYGEERKKKILPTCREGGKGEGSGGGKGEGSGGGKGEGSRGGKGEGSSDFKSESSYELYNLVCFSRKDFGLIVGVDDKGDGYKVLKEGIDGPVVVTVGKKEMQNGPFDSKFTALDLNKKQISVNDVVKISKGPSEGKQGVVRQVYRGIIFLYDESEEENGGYFCCKSQSCEKVKLFTEESNEKTGGFDGTAFEDFVSSPKSPLSPEKEWQPRERYNSSNQGDIGSTYSIGQKLRIRVGPLKGYLCRVIALRYSDVTVKLDSQHKIFTVKSEHLAEVRDRNTVLSTSGDAGTGSFQPFGMLGTESSTGDWAIGAGTSSEGGNWNIGGPSTDSHESLNIERNMVQLCREKNPWGGSKPTSDVSPTVADDNTSAWANAAAENKPASASDQPGGWNPWGKTPASEAGTVSGWGDTSASNVEASSWEKQGASTSNVADLGSWGTHGGSSGGNKQDEDSVWGKLCEASESSQKKEESSWGKKGGSDGESSWGNKDGNSSASKKDGVSWGQQDKGSDESKGGSAWSNQCGDFGSGKKKDGSSGWNKSAEDSNANSKGVPDWGQPNDGSSWGKKGDGAASWGKKDDGGSWGKKDDGNKDDGGSSWGKKDDGQKDDGGSSWEKKFDGGSSWGKKDDGGSSWGKKDDGGSLWGKKDDGGSSWGKEDDGGSLWGKKDDGESSWGKKDDGESSWGKKDDGGSSWGKKDEGGYSEQTFDRGGRGFGGRRGGGRRGGRDQFGRGSSFGNSEDPAPWSKPSGGSSWGKQDGDGGGSSWGKENDAGGGSSWGKQDNGVGSSWGKQNDGSGGGSSWGKQNDAGGGSSWGKQDSGGDGSSWGKQDGGGDSGSAWGKQNNTSGGSSWGKQSDAGGGSSWGKQDGGGGGSSWGKQDGGGGSGSAWGKQNETSNGSSWGKQNDSGGGSSWGKQDGGGGGSSWGKQNDGGGGSSWGKQGDGGSKPWNEHSGGGRGFGERRGGGGFRGGRNQSGRGGRSFDGGRSSSWKTDNQENTWKSDQSGGSDWKKGWGEDSNNSKPSGSSAGGCAGNWPSWDTNSKKETNDKPGDDSKSAWGTSNDQVNTDNNNDSWNKKPNNDVGTSGEADNAWGGKTNAVAPSPSGSAAWGTGDKKTGW
For the molecule B4, the binding result with SUVR2-Myc (Arabidopsis) was “no binding”.

B5: CHR19-Myc (protein, UniProt Q9ZUL5 1-763)
chain: MKRDFDEISEEEWSQHSFNASRVLKRPRTPKKTRAATNPTPSIESFAFRRPSTAMTIESNSSDGDCVEIEDLGDSDSDVKIVNGEDLLLEDEEEVEETKVVMRAARVGRRFVIEDEEASDDDDDEAESSASEDEFGGGGGGSGGRRGEDEDVVGKALQKCAKISADLRKELYGTSSGVTDRYSEVETSTVRIVTQNDIDDACKAEDSDFQPILKPYQLVGVNFLLLLYKKGIEGAILADEMGLGKTIQAITYLTLLSRLNNDPGPHLVVCPASVLENWERELRKWCPSFTVLQYHGAARAAYSRELNSLSKAGKPPPFNVLLVCYSLFERHSEQQKDDRKVLKRWRWSCVLMDEAHALKDKNSYRWKNLMSVARNANQRLMLTGTPLQNDLHELWSLLEFMLPDIFTTENVDLKKLLNAEDTELITRMKSILGPFILRRLKSDVMQQLVPKIQRVEYVLMERKQEDAYKEAIEEYRAASQARLVKLSSKSLNSLAKALPKRQISNYFTQFRKIANHPLLIRRIYSDEDVIRIARKLHPIGAFGFECSLDRVIEEVKGFNDFRIHQLLFQYGVNDTKGTLSDKHVMLSAKCRTLAELLPSMKKSGHRVLIFSQWTSMLDILEWTLDVIGVTYRRLDGSTQVTDRQTIVDTFNNDKSIFACLLSTRAGGQGLNLTGADTVIIHDMDFNPQIDRQAEDRCHRIGQTKPVTIFRLVTKSTVDENIYEIAKRKLVLDAAVLESGVHVDDNGDTPEKTMGEILASLLMG
On to B5, for which the binding result with SUVR2-Flag (Arabidopsis) [1] is given as “binds”.
